# Data from the supplement of paper PMC12632987.
# The full ranking holds about 4,500 sequences; the median of “median log2 fold change of GCK-ALFA target abundance (FLAG IP / Myc IP barcode read proportion)” is about 0.078, and the lowest 2% start at about -0.6. The list shows a part of the results.
# B1: GBRAP_160_4013 (protein)
# chain: MEEIEKLKKEIEEIFEETIEDMEGLTPEERLTLIRGAVGDILQLAAESPAVSDETEDKIAEIGDELIKEFEKNKDAPLEVWKELIKKALEKIKELLKKEE
# B2: GBRAP_128_3374 (protein)
# chain: VDEEKLKKIKELVEKMLTSTVEEVAELTKEIIELLKTASPEEQEAAVEIILEKLPEFTVEKLDAIADVIREAMKTASPYLQELLAEVEVEALNVAEEKEE
# B3: GBRAP_137_3669 (protein)
# chain: MIEAEIELENGLAFARITVEGSKEELERAAEIAEDIAGEIPNLAVSVELSEDGTLVIDVFGTKEDVLKFLKELAKRLNKTVKVKTKNLETGEEKEEVIEP
# B4: GBRAP_11_2658 (protein)
# chain: KKEILLKAAELAEKAAKALEKLIEVGTDDEELQKEIEKLLKEIKELADKHFDEALRSDVDVAVELWKEFLEDEENKEKYAKELLAAVRVLEGNLLLAADE
# B5: GBRAP_9_7133 (protein)
# chain: REELIKKMAEVVKEMVEDLAEAIPELSEEKKEEFKKRVDELKEELLADKEATPEEIAKRFKELVKEIEEEVKKIVDEDLAKIARAIALTAIEEIDEIAEE
# B6: GBRAP_125_3117 (protein)
# chain: HMEEALEDLRLLMRALGFSEEDIEEAVELARRFGLKNTMIAIALALGEEELADLIEQLSEEAVREALARVAAHIRAHPDLTPEEVKERFREVLREALARE
# B7: GBRAP_184_5221 (protein)
# chain: TVVREAVEAKTAEEAIAKAEKVIKEAQAAGKKLELTVFLENMSLEEIEEVMKYLAKKKEEGLIENAIVEVLDERSEEEVDELVKIADKYGIRLVVALPDE
# B8: GBRAP_160_4202 (protein)
# chain: EEKVKKIIEELKEETEEVIKLLDEVSVEEAAVFAEVEFGSVLMLAVELGIENDEILDVIDEAGDKIVKYLKENKDASVEELKKKIKEITEEAIKKIKELA
# B9: GBRAP_39_5698 (protein)
# chain: EREEEAEEVFSYYEAVGAKYAVEKGISLEEVKALAEERAEEFIAKHPEIAETMEELLELAKEAGDLAVLALLGLLLKAEEGTPLEQIKKDAELLIEYLKS
# B10: GBRAP_11_2832 (protein)
# chain: EKEKLKKLAEMAKEVADKLKKLIASGNPSEEELQELLEKAEKLLKEVKEYGDESLEKIAEIALEEIKKAIEDPENQKEYLEHALAFARVLEGQFLLELEE
# B11: GBRAP_128_3369 (protein)
# chain: LDEARLAEIRALVEAMIESSVEETRELTAEIVERIGTLSPEEQEAAVAIILEALPQFSKEKLEAIADTIRERRDELDPYTQRLLAEVEVEALNLAEELEE
# B12: GBRAP_150_3938 (protein)
# chain: DLEELLLLAEGIETDLELALEPGFDRLKLAERALELAKEIAKESDEELKKLAEELIKILEEAIKAIKEGAPQEEIDKLIKEALKLAEKLIEEIEKKIKEE
# B13: GBRAP_14_3821 (protein)
# chain: MEEILKVIEEEYEELAEELSEIAPEKKEEIKEIVEEKKKETIEEIKETGDAEEAVEEEREELLEEIEKLTADLPEEIRNTALAEADIEMAELEEEVEELE
# B14: GBRAP_35_5528 (protein)
# chain: ATDEEIAEMLAATIDDLVLAIPDMPVDTAKAAALSIAEAAKELAEEVKDNKKALELIAESVKRLAEALKKEAEKDPAMKPAYEKAKEVLEYIEKLIKEAE
# B15: GBRAP_160_4662 (protein)
# chain: MEELEKLKKEIEELIEEALKEMEGETHEQRVAVARTMVGNIVLLLSENPLVSDEAEDEVDEIGDELVEKIEANPDLTQEELEELLKEMGEKIKKVLDEKA
# B16: GBRAP_52_5964 (protein)
# chain: MEEEMEKKLEELFELKKAGDEEGMRKKAKEIVETLNDEELELFAKVLVKKIKESNLEDAELLLEIAIVLADEIEEAGRDERIASDLLGEAAAAYYKKLQE
# B17: GBRAP_128_3208 (protein)
# chain: VSPEAVARLRALADRVAAERTPAAIREFAAALAEALRAGEIDLDTLAEIVEYLGRRLSEEDILLAEAALREALADVGADALAVALGELGEVLYEKEEEEE
# B18: GBRAP_160_4014 (protein)
# chain: SEKIEKLKKEIREEFEELKEWIEGLTPEERITLARGTAGLILQLVESSEEVSEETEEEIAKILDDFVAQVEANKDAPLEVWRALIDDTLKKILELLDKEE
# B19: GBRAP_11_2683 (protein)
# chain: KKEILKEAAKLAKELAKVIEKLLEEGTDNEELLKEAEKLLEKLEKLAKEYADEGSKKLVEIAKELWEKAKKDPKNAEKYLKELLAVARVLEGQYLLEIEE
# B20: GBRAP_11_2681 (protein)
# chain: RKEALEEAAELAREAARLLQELLEEGVDNEELLARARETLRRLRELVEAHLDEAHRRDVEVLEEALREAEADPENAAQYVREALAAARVLHYNLEDEIDE
# B21: GBRAP_166_4974 (protein)
# chain: EREKLVEELKKYFEELAEKMKTANYEEKLELLAEAAEKLREAKEKGLSKEDLRELIRYLIELAREVGIPLTDVEGALTILAELDEEEIDILLEAIEEVEA
# B22: GBRAP_9_7106 (protein)
# chain: KEEFAKKVKEIIEEAREEIKKVVPEELKPLVDKLTEELLKEIDKLAADPNATVEEIAKAAKEGLKAMAEELSKKLSPEIAAAVEAIVLTAIEEIDELAEE
# B23: GBRAP_160_4638 (protein)
# chain: SPAVEEMIEIIDEYTEMALEAVDEGDIDGALATLRMMVGDLVLEAEEAPEFSDEDVDELDKLGREHVARFEAARDASKEELRALIKEGAEELKKKVKEFG
# B24: GBRAP_128_3534 (protein)
# chain: SIEEVKKYAEEVVEEIKNSDVEKAKEITKKFIEKLKTWTDEEVEAAVEVLEEKLKELSAEKLDAVADAIRENIGKLTPEKQRLLSGLEVEALNLAEELEE
# B25: GBRAP_78_6579 (protein)
# chain: KIEEEIDKAIEYLGKAAKLAKEFPEEVSNELLDLIVEAESYLLESEEEGFSLENLEKALKYVEEAIKLVEELDDEKAKKLKEELEKAKKHLEKAIKLKKE
# B26: GBRAP_11_2817 (protein)
# chain: IDPKVKKAIELARKLAELLEEYIESKSDDEELYKEILELAEELLKLVKELNDPGFISDAEVLLELVKEMVEDKENREEYAKNALAAARTLLANIEEEAEE
# B27: GBRAP_11_2917 (protein)
# chain: KKEKLEEIAKLLEKAAELLKKLLKEGVDNEKLREEALKTLEEALKLIKENLDESSVELAKYAVELLEKSKEDPENAEEYVKEALAVVEVLLGLVLLEIEE
# B28: GBRAP_160_4857 (protein)
# chain: SEKLEKALKIIDEAREEALDAVEEAPASQRAAIAEAIALDAIYELEEEGLITEELEKALLAIVDALRAALEANADASVAEHKALVDAAFDAMKETVKEMS
# B29: GBRAP_184_5217 (protein)
# chain: ELVNRAVEATTAEEAIAKSDAVVAEAQAAGKKLNLNVFLKDMSLEEIEKVMKHLSELKKAGKIADATVVVEDPVSEEELDKLVKLADKYGIRLVVALKDE
# Target: GABARAP, O95166
# Assay: median log2 fold change of GCK-ALFA target abundance (FLAG IP / Myc IP barcode read proportion) (log2 ratio); each designed protein is fused to an ALFA-tag nanobody in HEK293 cells to bring the named protein to FLAG-tagged glucokinase (GCK); Myc marks an untargeted standard; higher = target protein stabilised (more abundant)
# Conditions: target protein: 3xFLAG-MCP-GCK-ALFA reporter; HEK293 landing pad (RPLP)
# Procedure, shortened: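 The readout is target abundance, the per-binder median log2 ratio of FLAG to Myc barcode read proportions. It came from HEK293 landing-pad cells carrying a recombined ALFA-nanobody-fused binder library, induced with 2 μg mL^−1 doxycycline and transfected with a plasmid for a FLAG-tagged target and a Myc-tagged standard. After 48 h, lysates were immunoprecipitated with anti-FLAG and anti-Myc, and circular RNA barcodes were reverse transcribed, amplified and sequenced. Each barcode needed a proportion of at least 10^−7 in both replicates and each binder at least 3 barcodes per replicate, a pseudocount of 10^−6 was added, and the replicates were pooled.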
# Chain of GABARAP, O95166 (O95166 whole entry, the tested form may be a part): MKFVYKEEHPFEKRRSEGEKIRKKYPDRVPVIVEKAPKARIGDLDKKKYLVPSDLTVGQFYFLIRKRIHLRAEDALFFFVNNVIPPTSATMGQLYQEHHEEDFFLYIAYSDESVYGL
row,Binder,median log2 fold change
1,B1,0.141
2,B2,0.174
3,B3,0.0022
4,B4,0.391
5,B5,0.372
6,B6,-0.179
7,B7,0.1
8,B8,-0.374
9,B9,0.0476
10,B10,0.0612
11,B11,0.219
12,B12,0.0749
13,B13,0.381
14,B14,0.275
15,B15,0.191
16,B16,-0.0348
17,B17,0.166
18,B18,0.174
19,B19,0.0492
20,B20,0.267
21,B21,0.0911
22,B22,0.365
23,B23,-0.113
24,B24,0.237
25,B25,0.208
26,B26,0.215
27,B27,0.218
28,B28,-0.323
29,B29,-0.073
